Drawing on PubChem BioAssay AID485344 (National Center for Advancing Translational Sciences (NCATS), 2010), this text covers inhibition for 48 molecules.

A word on the inhibition: it is the drop in the measured response relative to a control, in per cent.

Each structure is given as a SMILES string. Out of some 340,000 compounds screened, about 6,900 (2%) were called active. Rule as the data show it: active = inhibition above about 30%; inactive = below that, where a call was filed. The list shows a part of the results, in another mix than the full data. The source gives no active or inactive call for entries shown without one.

UniProt P14416, sequence (P14416 whole entry, looked up): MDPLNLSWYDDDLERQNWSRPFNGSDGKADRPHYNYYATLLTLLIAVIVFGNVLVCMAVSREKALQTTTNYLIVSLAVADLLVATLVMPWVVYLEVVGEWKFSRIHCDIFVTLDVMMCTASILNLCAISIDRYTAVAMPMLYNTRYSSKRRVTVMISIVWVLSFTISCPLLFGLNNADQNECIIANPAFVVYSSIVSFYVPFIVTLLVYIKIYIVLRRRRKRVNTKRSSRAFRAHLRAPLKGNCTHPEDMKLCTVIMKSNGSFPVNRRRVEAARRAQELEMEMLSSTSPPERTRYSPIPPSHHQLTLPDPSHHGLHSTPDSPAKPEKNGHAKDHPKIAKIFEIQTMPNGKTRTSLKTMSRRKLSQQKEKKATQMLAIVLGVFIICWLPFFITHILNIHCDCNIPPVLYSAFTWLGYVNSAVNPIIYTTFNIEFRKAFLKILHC

This test concerns the target D(2) dopamine receptor (Homo sapiens) (UniProt P14416). The test is described as follows: HTS Assay for Allosteric Antagonists of the Human D2 Dopamine Receptor: Primary Screen for Antagonists. Also: 0% is about no effect. Particulars: HEK293 TREx D2 cells, calcium flux, dopamine EC80; at 10 µM; stronger effect = higher value. From the text:
NIH Chemical Genomics Center [NCGC] NIH Molecular Libraries Probe Centers Network [MLPCN] MLPCN Grant: NS064831-01 Assay Submitter (PI): David Sibley Dopamine receptors (DARs) are involved in the etiology and/or therapy of a number of neuropsychiatric and endocrine disorders. For instance, all receptor-based antiparkinsonian drugs work via stimulating the D2 DAR subtype whereas all FDA-approved antipsychotic agents are antagonists of this receptor. […] There are three different types of allosteric modulators that we are seeking, two of which will stimulate or augment receptor signaling, allosteric agonists and potentiators, while the third, allosteric antagonists, will attenuate receptor signaling. The present primary screening assay measures compound antagonism after an EC80 addition of dopamine by tracking calcium flux in a […], inducible Hek293 Trex D2 cell line.
Freshly passaged cells are plated in 1536 well black, clear bottom plates at a density of 4000 cells/well in 3 ul of complete media containing 1x tetracycline inducer. After an overnight incubation at 30 C in 5% CO2, cells are loaded with 2 ul of the no wash Calcium Assay Kit (ABD Bioquest) and incubated at room temperature for 30 to 90 minutes. Agonist read: A 10 cycle (1 second/cycle) baseline measurement is taken and then the FDSS online 1536 pintool delivers 23 nl of compound library (as well as dopamine controls) to the plate. The plate is measured for kinetically at 1 cycle/sec for 180 seconds. Following the 180 second read, 1 ul of an EC80 (negative modulation assay) is delivered by an onboard pipette head. Measurements are taken kinetically for an additional 180 seconds.
(Calcium assays in cells follow changes in intracellular calcium, usually with a dye or a luminescent sensor.)
On to `Cc1nn(-c2ccc(N3CCCC3)nn2)c(C)c1CCC(=O)Nc1ccccc1`, for which the inhibition was 4.1%.

For `CCCCOC(=O)c1ccc(NC2=NS(=O)(=O)c3ccccc32)cc1`, the inhibition came to 9%.

As for `Cc1ccc(-c2nc3n(n2)C(=O)CC(c2ccc(C)cc2)S3)cc1` (stereo not drawn), the inhibition was -4.17%.

`Cc1ccc(NS(=O)(=O)c2c(C)nc3sccn3c2=O)c(Cl)c1`: the inhibition is -1.77%.

`Cc1ccc(-n2c(=O)c3c(c4cc(C)ccc4n3C)n(CC(=O)NCC3CCCO3)c2=O)cc1` (stereo not drawn): the inhibition is -8.83%.

For the molecule `COc1ccccc1NS(=O)(=O)c1ccc(C)c(C(=O)NC2CCN(Cc3ccccc3)CC2)c1`, the inhibition is active: 76.6%.

As to `COc1cc(Cl)c(NC(=O)CC(C)S(=O)(=O)c2cc3c(cc2C)NC(=O)CO3)c(OC)c1` (stereo not drawn), the inhibition was -6.5%.

Consider `Cc1ccc(NC(=O)CSc2nncn3c2cc2sccc23)cc1F`, for which the inhibition is -5.74%.

Regarding `O=C(Nc1ccc(Cl)c(-c2nc3ccccc3o2)c1)c1cccc2c(Cl)cccc12`, the inhibition is -6.24%.

For the molecule `Cc1ccc(CSC2=Nc3ccccc3C3=NC(CCC(=O)NCc4cccs4)C(=O)N23)c(C)c1` (stereo not drawn), the inhibition is -3.91%.

In the case of `COc1ccc(Nc2ccc3cc(S(=O)(=O)N4CCCC4)ccc3n2)cc1OC`, the inhibition was -1.85%.

As for `Fc1ccc(-c2nc3c4c(-c5ccccc5)c(-c5ccccc5)oc4ncn3n2)cc1`, the inhibition came to 8.6%.

For `CCC(Oc1ccccc1)C(=O)N1CCN(Cc2cc(=O)n3nc(-c4cccc(C)c4)sc3n2)CC1` (stereo not drawn), the inhibition was -0.404%.

On to `CCOC(=O)c1ccc(N2CCN(c3cc(Cl)ccc3C)CC2)c(NC(=O)Nc2ccc(OCC)cc2)c1`, for which the inhibition was 6.27%.

As to `O=C1C2CCCCN2C(=O)N1CCCCN1CCN(c2cccc(Br)c2)CC1` (stereo not drawn), the inhibition is active: 86.6%.

Take `Cc1cc(N2CCN(C)CC2)nc2ccc(NC(=O)Nc3ccc(F)cc3F)cc12`: the inhibition turned out to be 14.6%.

Turning to `COc1cccc(-c2ccc3c(N)c(C(=O)c4ccc(F)cc4)sc3n2)c1`, the inhibition is -7.78%.

In the case of `O=C(O)/C(=C\c1cccs1)Sc1nnc(-c2ccc(F)cc2)o1`, the inhibition is active: 35%.

Take `CC(NC(=O)CCCN1C(=O)CCn2nc(-c3cn(C)c4ccccc34)cc21)c1ccccc1` (stereo not drawn): the inhibition was 1.33%.

With `CC(C)c1ccc(NC(=O)Cn2ncc3ccccc32)cc1`, the inhibition is active: 32.4%.

In the case of `CCOC(=O)c1c(C)oc2nc(C)nc(NCC3CCN(Cc4ccc(F)cc4)CC3)c12`, the inhibition is -23.7%.

For `O=C(CSc1nc2ccc(Cl)cc2[nH]1)NCCc1ccccc1`, the inhibition was active: 39.4%.

On to `COc1ccc(CNc2ncnc3c2cnn3-c2ccc(Cl)cc2)cc1`, for which the inhibition is 11.5%.

Consider `CCOC(=O)c1cc2c(=O)n3ccccc3nc2n(CCOC)c1=NC(=O)c1cc2ccccc2o1`, for which the inhibition turned out to be 15.6%.

With `c1ccc(N2CCN(Cc3nnc(-c4ccc5c(c4)OCO5)o3)CC2)cc1`, the inhibition turned out to be 1.94%.

Turning to `COc1ccc(C2=NS(=O)(=O)N(C)C(C(=O)Nc3ccc(OC(F)(F)F)cc3)=C2)cc1`, the inhibition is 13%.

Consider `c1ccc(CC2CCN(Cc3ccccn3)CC2)cc1`, for which the inhibition was active: 30.2%.

On to `CN(Cc1ccccc1)S(=O)(=O)c1nnc(NC(=O)c2ccccc2Cl)s1`, for which the inhibition was 9.33%.

Turning to `COc1ccc(-c2nc3scc(CCNS(=O)(=O)c4c(C)cc(C)cc4C)n3n2)cc1OC`, the inhibition was -2.65%.

With `CCCc1cc(=O)[nH]c(Nc2ccccc2O)n1`, the inhibition was -4.28%.

For the molecule `O=C(NCCn1cc(SCc2ccccc2)c2ccccc21)c1cccs1`, the inhibition was -3.76%.

As for `CCc1nn2c(=O)cc(COC(=O)c3ccc4c(c3)OCO4)nc2s1`, the inhibition is -6.48%.

Regarding `CC(C)(C)C1CCc2c(sc(NC(=O)c3ccccc3F)c2C(=O)NCc2ccco2)C1` (stereo not drawn), the inhibition is -19%.

In the case of `COc1ccccc1CNC(=O)CCCCn1c(=O)c2ccccc2n(Cc2ccccc2C)c1=O`, the inhibition was determined as 20.9%.

As to `Cc1cc(C)cc(C(=O)Nc2cccc(-c3nc4ncccc4o3)c2C)c1`, the inhibition is -5.58%.

On to `CC(=O)c1c(C)n(-c2ccc(Cl)cc2)c2ccc(OC(=O)COc3ccccc3)cc12`, for which the inhibition was -0.984%.

As to `COc1ccc(CCNc2nc3ccc(C)cc3n3cnnc23)cc1OC`, the inhibition was found to be 16.8%.

In the case of `O=C(c1cccn1-c1nnc(N2CCCCC2)s1)N1CCN(c2ccc(Cl)cc2)CC1`, the inhibition worked out at 9.51%.

For `CCOC(=O)CSc1nc(-c2ccc(F)cc2)cc(C(F)(F)F)c1C#N`, the inhibition is 15%.

As to `COc1ccc(Cl)cc1N=C1NC(=O)CC(C(=O)Nc2ccccc2C(F)(F)F)S1` (stereo not drawn), the inhibition is 8.08%.

On to `COc1ccc(S(=O)(=O)N(CC(=O)Nc2cc(C)cc(C)c2)c2ccc(Cl)cc2)cc1`, for which the inhibition was -14.5%.

For `CCn1c(C(=O)N2CCC(C(=O)N3CCN(c4ccc(OC)cc4)CC3)CC2)cc2sccc21`, the inhibition is -5.93%.

On to `CCNc1nc(NC(C)(C)C)nc(Oc2ccc(=O)n(-c3ccccc3)n2)n1`, for which the inhibition turned out to be 4.08%.

Regarding `CCc1ccccc1N1CC(c2nc3ccccc3n2CCOc2ccc(Cl)c(C)c2)CC1=O` (stereo not drawn), the inhibition was 24.5%.

Regarding `CC(C)Oc1ccc(CNC(=O)c2ccc3nc(C(C)C)oc3c2)cc1`, the inhibition is -15.1%.

With `CN(C)c1ccc(C(=O)Nc2c(C(=O)NC(C)(C)C)oc3ccccc23)cc1`, the inhibition stood at 12.1%.

In the case of `Cc1cc(C)cc(NC(=O)C(CC(C)C)NC(=O)C2CCCCC2)c1` (stereo not drawn), the inhibition was 8.34%.

On to `COc1ccc(-c2nc(Cn3c(=O)cc(-c4ccccc4)c4c(C)nn(C)c43)c(C)o2)cc1OC`, for which the inhibition was 17.7%.
